About 12,000 (3.5%) of roughly 340,000 compounds were called active. Inconclusive results, whose numbers are uncertain, are shown with a selection of clear calls. Calls come from the whole dose curve; as a rule, active = well fitted inhibition curve with a large enough effect; inconclusive = small, poorly fitted or top-dose-only effect, or another doubt; inactive = no such curve, though single readings can be large or run the other way. No potency is given beside an inconclusive call; the fits are too rough.
Experiment: qHTS Assay for Inhibitors of Hepatitis C Virus (HCV)
Settings: Huh7.5.1 HCVcc-Cre (HCVcc is cell-culture hepatitis C virus) infection, luciferase reporter, 44 h; series mostly up to 41.8 µM
How it was run: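 A cell-based infection assay in which seeded cells (1,000 per well) receive test compound after 4 h, are inoculated with HCVcc-Cre at approximately 0.5 moi, and are incubated 44 h before luminescence detection.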
Potency is the fitted concentration of half-maximal effect; tags give direction and shape of the fitted curve.

**Q.** For `CCCCCn1c(CCNC(=O)c2cccs2)nc2ccccc21`, which Potency is on record?
**A.** The Potency was inconclusive [inhibitor, full curve].

**Q.** Which Potency does the source give for `Cc1ccc(S(=O)(=O)Nc2ccccc2C(=O)Nc2nc(-c3ccc(F)cc3)cs2)cc1` here?
**A.** The Potency was active: 6.31 µM.

**Q.** With `N#C/C(=C(/O)CCl)c1nc(-c2ccccc2)cs1` as the compound, how does the Potency read?
**A.** Its Potency is inconclusive [inhibitor, partial curve].

**Q.** For `CC(C)C[C@H](NC(=O)c1[nH]cnc1C(=O)N[C@H](C)c1ccccc1)C(=O)OCc1ccccc1`, which Potency is on record?
**A.** The Potency was “inactive”.

**Q.** For `CCOc1ccccc1/C=N/Nc1nc2ccccc2o1`, which Potency is on record?
**A.** Its Potency is active: 12.6 µM.

**Q.** For `O=C(CCc1ccccc1)NCC(=O)N/N=C/c1ccc(O)cc1O`, which Potency is on record?
**A.** The Potency was “inactive”.

**Q.** For `C=C(C)C(=O)Oc1ccc(N=Nc2ccc(C)cc2)ccc1=O`, which Potency is on record?
**A.** The Potency was active: 11.2 µM.

**Q.** With `O=C(Nc1cccc(S(=O)(=O)N2CCCCC2)c1)c1ccc2c(=O)n3c(nc2c1)CCCCC3` as the compound, how does the Potency read?
**A.** Its Potency is active: 6.31 µM.

**Q.** Which Potency does the source give for `COc1ccc(OCc2nc(C#N)c(N3CCN(c4ccc(OC)cc4)CC3)o2)cc1` here?
**A.** Its Potency is inconclusive [inhibitor, partial curve].

**Q.** Which Potency does the source give for `O=C(Nc1ccc(N2CCN(c3ccccc3)CC2)c(F)c1)C1CC1` here?
**A.** Its Potency is inconclusive [inhibitor, single point].

**Q.** For `C[n+]1c2n(c3ccccc31)N=C(c1ccc(Cl)cc1)CS2`, which Potency is on record?
**A.** The Potency was inconclusive [inhibitor, partial curve].

**Q.** Which Potency does the source give for `Cc1ccc(SCC(=O)OCC(=O)N(CC(C)C)c2c(N)n(Cc3ccccc3)c(=O)[nH]c2=O)c(C)c1` here?
**A.** The Potency was active: 10 µM.

**Q.** Which Potency does the source give for `O=C(COc1ccc(S(=O)(=O)N2CCOCC2)cc1)NCc1ccccc1` here?
**A.** Its Potency is “inactive”.

**Q.** Which Potency does the source give for `O=c1c(Cc2ccc(Cl)cc2Cl)c(O)ccn1CC(F)(F)F` here?
**A.** The Potency was “inactive”.

**Q.** For `CCCCNC(=O)C1CCCN(S(=O)(=O)c2c(C)noc2/C=C/c2cccs2)C1` (stereo unspecified), which Potency is on record?
**A.** Its Potency is inconclusive [inhibitor, single point].

**Q.** For `O=[N+]([O-])/C=C/c1c(Cl)cccc1Cl`, which Potency is on record?
**A.** Its Potency is active: 8.91 µM.

**Q.** For `CN(C)S(=O)(=O)c1cccc(NC(=O)COc2cccc(C#N)c2)c1`, which Potency is on record?
**A.** The Potency was inconclusive [inhibitor, single point].

**Q.** Which Potency does the source give for `Cc1cccc(NC(=S)NCC(C)CSc2ccc(Cl)cc2)c1` (stereo unspecified) here?
**A.** The Potency was inconclusive [inhibitor, single point].

**Q.** With `CCOC(=O)/C(C#N)=C/c1c(N2CCCCCC2)nc2ccccn2c1=O` as the compound, how does the Potency read?
**A.** The Potency was inconclusive [inhibitor, single point].

**Q.** Which Potency does the source give for `COc1ccc(N2CCN(C(c3cccs3)C(C)NC(=O)C(=O)N3CCCCC3)CC2)cc1` (stereo unspecified) here?
**A.** The Potency was “inactive”.

**Q.** For `c1ccc2c(-c3nc(C4CCCCC4)no3)cc(-c3ccncc3)nc2c1`, which Potency is on record?
**A.** Its Potency is active: 8.91 µM.

Reference: PubChem BioAssay AID651820 (National Center for Advancing Translational Sciences (NCATS), 2012)
